In the supplement of paper PMC3724861:
The other results are listed elsewhere or left out.

Test system: T1, Caupolican (Caup) homeodomain DNA-binding domain
T1 sequence: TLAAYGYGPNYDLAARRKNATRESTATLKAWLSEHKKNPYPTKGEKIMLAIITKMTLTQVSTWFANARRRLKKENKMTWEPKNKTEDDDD
Experiment: PBM E-score (8-mer, recovered from the published 9-mer minima) (E-score (dimensionless, -0.5 to 0.5)); Drosophila protein; higher = stronger relative binding preference, active = 0.31 or more
Method in brief: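 Caup's homeodomain DNA-binding domain (residues 214-303) was produced by in vitro transcription and translation and applied at 100 nM to custom-designed protein binding microarrays. Each value is an enrichment score giving relative binding preference for a short DNA word; higher means stronger. Published 9-mer scores were the minimum of their two constituent 8-mer scores, and the 8-mer values were recovered from those minima. A cutoff of 0.31 marks candidate binding sequences.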

Sequence | PBM E-score
GACACGGA | inactive: 0.286
CCAATACG | inactive: 0.0979
AGAACGCT | inactive: -0.0866
AAGCGTGG | inactive: -0.168
TGCTCAAA | inactive: 0.0435
CAACGAGA | inactive: 0.107
CCGCGGTA | inactive: -0.12
GCTCTTAC | inactive: 0.0957
CACCACGC | inactive: -0.188
CATAAGCC | inactive: -0.032
CAACGAGG | inactive: 0.0398
CTGGCATA | inactive: -0.0145
TCTAGTCA | inactive: 0.0786
GTACATGA | active: 0.435
GAGGGTCA | inactive: -0.163
AAAAGAGT | inactive: -0.0158
AGAGAGGC | inactive: -0.207
CAGCCAGA | inactive: -0.146
GAAAGCTC | inactive: -0.111
CGTATGCA | inactive: 0.00595
CCCATACG | inactive: -0.0928
ACCGATTG | inactive: 0.149
TAGACAGA | inactive: 0.087
GTAACGAA | inactive: 0.106

Sequence | PBM E-score
AACATGCT | active: 0.376
AGATTCAA | inactive: 0.106
CAATATTG | ≥ 0.264
CGGGGCCC | inactive: -0.257
AATTGTCA | inactive: 0.25
ACAGTTGG | inactive: 0.0397
AAGCATAG | inactive: 0.0253
AATGTTTG | inactive: 0.244
GCCTAGTA | inactive: -0.0206
CATTATAA | inactive: 0.00764
AGAGTTAC | inactive: 0.0703
GATGGAAC | inactive: 0.0718
GCAAATAC | inactive: 0.0617
CCCTCCTA | inactive: -0.135
AATGCTCT | inactive: 0.00353
ATATCGAG | inactive: 0.0301
ACGAAGCA | inactive: 0.0439
ATTATCGA | inactive: 0.0755
GGGGTCGA | inactive: -0.151
CATCATAC | inactive: 0.198
GACTGAGC | inactive: -0.135
ATCCAACC | inactive: -0.0224
GAAGAGGC | inactive: -0.167
AGCGTAGG | inactive: -0.182

Sequence | PBM E-score
GCGGTCCA | inactive: -0.206
GAGGTCAA | inactive: -0.0334
CCGGTTCA | inactive: -0.146
AAACCGGT | inactive: -0.109
CGTCCGGC | inactive: -0.219
ACACTTGC | inactive: 0.127
GTATAACA | active: 0.338
AGACGGCT | inactive: -0.134
GCCGGGTA | inactive: -0.161
AACATCCT | inactive: 0.261
GCTGGAGA | inactive: -0.19
GATGCCGA | inactive: -0.0496
GGCGTGAC | inactive: -0.091
GATGCAAA | inactive: 0.00966
CGAGCTAA | inactive: -0.095
GCTAATGA | inactive: 0.0156
AGGCCTAT | inactive: -0.0555
GCTGAGAC | inactive: -0.0615
GTTCACAA | inactive: 0.15
CCTTAGAA | inactive: -0.0668
AAAATGCC | inactive: -0.0299
AAATGGTA | inactive: 0.174
CTTGATCC | inactive: -0.0897
AACCCGTA | inactive: -0.0357

Sequence | PBM E-score
AAGGAGTC | inactive: -0.0913
CTGAGCGC | inactive: -0.211
GATAACTA | inactive: 0.192
CTAGCATA | inactive: 0.0224
ATGGTTCA | inactive: 0.0836
ATTGACAC | inactive: 0.237
GCTCGCCC | inactive: -0.171
AAATCTGC | inactive: 0.0276
ACTGATAC | inactive: 0.21
CGGAAGGA | inactive: -0.155
AATCACAT | inactive: 0.248
AAGTACTT | inactive: 0.0372
AGGTCGTC | inactive: -0.113
TACGTCTA | inactive: 0.0532
GGCCGGGA | inactive: -0.252
CAGATAGC | inactive: -0.0657
AGATCACT | inactive: 0.103
GGTTCTTA | inactive: 0.045
ACACAGCC | inactive: 0.0493
GCTGCGAA | inactive: -0.105
CGACACAA | inactive: 0.21
CAGTTGAG | inactive: -0.049
GACTCTCA | inactive: -0.025
GCCTCGGA | inactive: -0.217

Sequence | PBM E-score
GTGCACCA | inactive: -0.0612
ACATAAGC | inactive: 0.144
CCATGATA | inactive: 0.0656
AGAGACCT | inactive: -0.165
ATACTCAG | inactive: 0.0297
GGATATAA | inactive: 0.0885
CCTACCCA | inactive: -0.131
CATTGGCC | inactive: -0.187
ATGGTCGC | inactive: -0.0587
GATTCGGA | inactive: 0.0364
ACGTGTCG | inactive: 0.301
GCTAGGAC | inactive: 0.00541
TCCCTCAA | inactive: -0.141
ACTTTTAG | inactive: 0.0205
TGTTAACA | active: 0.371
CATCTAGA | inactive: 0.0463
CCACGAAC | inactive: 0.0437
ACATGACG | inactive: 0.297
CCAGGACG | inactive: -0.075
GCAGGTCC | inactive: -0.109
ATTGTAAC | inactive: 0.308
CGCAGTGA | inactive: -0.066
CAGGACCC | inactive: -0.184
CACCACTA | inactive: 0.0556

Sequence | PBM E-score
GTAGATAC | inactive: 0.134
ATGTTATG | active: 0.338
ACCACAGT | ≥ 0.0797
CGCAATGC | inactive: -0.0669
TCAAAGGA | inactive: -0.0014
GAGTGCAA | inactive: 0.065
AAGACGGC | inactive: -0.148
ACCGTTCT | inactive: -0.084
CTTAGTTC | inactive: -0.0758
GAATCTAC | inactive: 0.0645
GAGAGCAC | inactive: -0.144
GACAGTAC | inactive: 0.177
CGAGAACC | inactive: -0.054
CCCCTAGG | inactive: -0.286
CTAAGAGA | inactive: -0.0459
CCAGACTC | inactive: -0.0483
TATAGTCA | inactive: 0.141
GTATGGTA | inactive: 0.204
AAGCTGAG | inactive: -0.0897
GCTAGATA | inactive: 0.0474
ACTAAAAG | inactive: -0.0855
GACACGCA | ≥ 0.284
